PMC5862788 (Antiviral therapy, 2018)
≈ marks a conversion by molar mass, not a printed value. Where “and” joins values, the source holds several entries; their conditions need not be identical. Equal values may be shown once.

Assays:
[1] = population estimate (R.S.E. %), HCV-infected individuals
clinical = conditions: human, in vivo; for half-life: half-life t1/2 = ln(2)/ke
HCV genotype 1b = assay: animal or person; conditions: Hepatitis C virus, GETYPE1B, in Homo sapiens

## CS(=O)(=O)Nc1ccc2c(c1)S(=O)(=O)N=C(C1=C(O)[C@@H]3[C@H]4CC[C@H](C4)[C@@H]3N(Cc3ccc(F)cc3)C1=O)N2 [setrobuvir]
[1]
  k12 (transition rate central to peripheral compartment): 0.12 /hr and 0.12 (28) /hr
  k21 (transition rate peripheral to central compartment): 0.071 /hr and 0.07 (11) /hr
  ka (first-order absorption rate): 0.26 hr^−1 and 0.26 (19) hr^−1
[1]; oral
  Tlag (lag-time): 1.68 hr and 1.68 (8) hr
clinical
  Vd: 5.11 L
  k el: 1.75e-05 s⁻¹
clinical; HCV-infected patients
  half-life: 11.4 h
clinical; healthy volunteers
  half-life: 10.2 h
HCV genotype 1b
  EC50: 8.45 ng/mL (≈ 0.0151 µM)
